In article PMC4336329 (PLoS ONE, 2015):
Among all 310,000 compounds or so, about 14,000 (4.5%) showed an effect of 50% or more. The effect is printed as a negative number. The list shows a part of the results.

target: human ether-à-go-go-related gene (hERG) potassium channel (human, UniProt Q12809); experiment: primary screen, population patch clamp on CHO cells stably expressing hERG
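Note: peak tail current of the secondary pulse compared with the same well before compound.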

Sequence of human ether-à-go-go-related gene (hERG) potassium channel (Q12809 whole entry, looked up): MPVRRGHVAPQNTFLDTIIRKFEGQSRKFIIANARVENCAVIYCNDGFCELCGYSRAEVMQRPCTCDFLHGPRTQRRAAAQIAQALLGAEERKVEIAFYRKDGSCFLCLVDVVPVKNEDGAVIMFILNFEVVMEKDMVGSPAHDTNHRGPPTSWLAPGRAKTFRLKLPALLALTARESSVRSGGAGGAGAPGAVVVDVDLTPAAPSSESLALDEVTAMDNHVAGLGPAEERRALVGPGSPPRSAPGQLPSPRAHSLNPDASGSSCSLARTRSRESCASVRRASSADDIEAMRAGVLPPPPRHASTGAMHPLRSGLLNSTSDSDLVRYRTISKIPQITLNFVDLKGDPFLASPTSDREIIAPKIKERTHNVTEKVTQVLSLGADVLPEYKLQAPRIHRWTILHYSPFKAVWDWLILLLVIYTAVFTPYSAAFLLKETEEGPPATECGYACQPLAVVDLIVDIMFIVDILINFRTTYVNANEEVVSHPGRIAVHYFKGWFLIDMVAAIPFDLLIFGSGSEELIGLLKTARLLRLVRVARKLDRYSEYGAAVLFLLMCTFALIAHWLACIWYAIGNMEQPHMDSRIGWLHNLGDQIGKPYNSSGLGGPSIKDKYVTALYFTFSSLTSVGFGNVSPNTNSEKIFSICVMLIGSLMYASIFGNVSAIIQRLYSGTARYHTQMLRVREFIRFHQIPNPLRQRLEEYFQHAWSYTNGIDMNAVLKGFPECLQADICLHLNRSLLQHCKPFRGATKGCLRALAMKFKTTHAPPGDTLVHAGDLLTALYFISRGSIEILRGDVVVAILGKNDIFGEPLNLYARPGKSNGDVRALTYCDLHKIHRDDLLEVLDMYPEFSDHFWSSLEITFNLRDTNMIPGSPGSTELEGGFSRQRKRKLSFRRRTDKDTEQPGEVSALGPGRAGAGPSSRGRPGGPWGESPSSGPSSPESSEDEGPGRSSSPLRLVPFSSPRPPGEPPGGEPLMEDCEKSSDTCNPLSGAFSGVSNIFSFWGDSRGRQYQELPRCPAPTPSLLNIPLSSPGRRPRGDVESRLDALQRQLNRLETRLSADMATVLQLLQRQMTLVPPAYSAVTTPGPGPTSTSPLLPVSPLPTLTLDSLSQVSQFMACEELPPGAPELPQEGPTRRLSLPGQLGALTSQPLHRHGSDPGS

Row | Compound | hERG current change (%, negative = inhibition) at 10uM [%]
1 | C/C(N)=C(/C#N)C(=O)CSc1nc(-c2ccccc2)c(-c2ccccc2)o1 | 12.9
2 | CCOC(=O)c1[nH]c2c(c1C)C(=O)CC(c1ccc(OC)c(OC)c1)C2 (stereo not shown) | -9.84
3 | COc1ccc(SCCN2CC[C@@H](NC(=O)OCc3ccccc3)CCC2=O)cc1 | -54.4
4 | Cc1nc2ccccc2[nH]c1=O | 14.5
5 | O=C(Cc1ccccc1)c1nc2ccccc2s1 | 17
6 | O=C1NCCn2ccc(=O)cc21 | 1.37
7 | CSc1ncc(C(=O)Nc2ccccc2)cn1 | 10.8
8 | C=C(C)C(=O)Nc1ccc2c(c1)OCCOCCOCCO2 | -26.4
9 | O=C(/C=C/c1ccccc1)NCc1ccc2c(c1)OCO2 | 2.84
10 | Cc1cc(C(=O)CSc2nnc(-c3ccccc3)o2)c(C)n1CC1COc2ccccc2O1 (stereo not shown) | 4.5
11 | CC(Oc1cccc2cccnc12)C(=O)N/N=C/c1ccc2c(c1)OCO2 (stereo not shown) | 8.29
12 | O=c1[nH]c(=O)n(Cc2ccco2)c(O)c1C=NCCN1CCNCC1 | 13.1
13 | CC(C)c1ccc(NC(=O)Cn2cccc2C2=NC(c3ccccc3)CO2)cc1 (stereo not shown) | -3.56
14 | O=C(NC1CCCC1)c1cc2nc(-c3ccco3)cc(C(F)(F)F)n2n1 | 20.1
15 | COc1ccc(C(=O)N2CCN(C3CCC(c4ccccc4)CC3)CC2)cc1OC (stereo not shown) | -69.9
16 | CCOc1ccc(C(c2c(NC(=O)c3ccco3)sc(C)c2C)N2CCOCC2)cc1 (stereo not shown) | -6.78
17 | CC(C)Cn1c(N)c(C(=O)COC(=O)[C@@H]2CCCN2C(=O)c2cccs2)c(=O)n(C)c1=O | -8.74
18 | COc1ccc(C(=O)Nc2ccccc2C(=O)NC(Cc2c[nH]c3ccccc23)C(=O)O)cc1 (stereo not shown) | 11.2
19 | COc1ccc(-c2cnc(N)nc2-c2ccc(OC)cc2O)cc1 | 23.2
20 | COc1ccccc1CN(C)C(=O)c1sccc1-c1ccccc1 | -11.5
21 | CC(C)CC(=O)NNC(=O)c1ccc(Cl)cc1 | 22.6
22 | COC(=O)C1(C)NC(c2ccccc2F)C2C(=O)N(c3ccccc3)C(=O)C21 (stereo not shown) | 13.4
23 | CCC(=O)/C=C1/Sc2ccccc2N1CC | 7.66
24 | CN(C1CCS(=O)(=O)C1)S(=O)C12CC3CC(CC(C3)C1)C2 (stereo not shown) | 17.2
25 | COc1ccc(-n2c(Cc3cccn3C)nnc2SCC(=O)Nc2ccc(C)c(Cl)c2)cc1 | -28.2
